Measurements taken from US20230158063A1, “AIRWAY […] THERAPY TO TREAT VIRAL R[…]” (THE TRUSTEES OF INDIANA UNIVERSITY, priority 2020, published 2023).

System: SARS CoV-2 S protein
Details: 20 hours post-infection; relative to untreated cells

## CN(C)C(=O)COC(=O)Cc1ccc(OC(=O)c2ccc(NC(=N)N)cc2)cc1.CS(=O)(=O)O [CM, camostat methylate]
  S protein cleavage (ratio of 180 kDa unprocessed S protein to cleaved S2 subunit): inhibit cleavage
